Out of some 150,000 compounds screened, about 540 (0.36%) showed an effect of 50% or more. This is one part of the list.

In the assay the test system is Plasmodium falciparum. In words: Primary screen in NF54 nanoGlo assay, in single point, at 2uM, 72h; a lower Z score goes with more inhibition. To be noted: timepoint 72 hour. The assay is classed as functional, Erythrocyte.
Usually % Inhibition stands for the relative decrease from the control value, in per cent. Turning to `O=c1ccc(-c2ccc(CN3CCCCC3)cc2)c[nH]1`, the “% Inhibition” value is -5% and the Z score amounted to 0.95.
On to `CC(C)c1cc(CN(C)C(=O)CNC(=O)N(C)C)no1`, for which the “% Inhibition” value is reported as -2% and the Z score was 0.27.
The like results for `CC(C)Nc1ccccc1C(=O)N(C)[C@H](c1ccccn1)C1CC1` were, in that order, -3% and 0.59.
Regarding `Cn1cccc1C(=O)NCc1nc(C2CCC(F)(F)CC2)no1`, the “% Inhibition” value is listed as -10% and the Z score is on record as 1.34.
The like results for `COc1ccc(-c2cnnn2-c2ccc(N3C(=O)c4ccccc4C3=O)cc2)cc1OC` were, in that order, -1% and 0.13.
For `COCCN(CC1CCN(Cc2ccccc2F)CC1)C(=O)CCc1ccccc1C` the same measures were -12% and 1.88.
For `COc1ccc(-c2cn(-c3ccc(C)c(C)c3)c(NC(=O)CN(C[C@H]3CCCO3)C(=O)c3cccc(OC)c3)n2)cc1` the same measures were -9% and 1.14.
Turning to `Cc1cc(S(C)(=O)=O)cc(C(=O)N2CCC3(CCC3)CC2)c1C`, the “% Inhibition” value is listed as 24% and the Z score is -2.74.
For `Cc1cc(C)cc(CCC(=O)N2CC[C@@](C(=O)O)(C(F)(F)F)C2)c1` the same measures were -8% and 1.13.
On to `COc1cc2c(cc1OC)[C@H](c1ccccc1Cl)N(C(=O)COCc1ccccc1)CC2`, for which the “% Inhibition” value is reported as 9% and the Z score was -1.79.
`COc1nccc(NC(=O)N2CC(C)(C#N)C2)n1`: the “% Inhibition” value is listed as -2% and the Z score was 0.2.
Consider `CCN(CC#N)C(=O)[C@@H]1CCCC[C@H]1C(=O)N(CC)CC#N`, for which the “% Inhibition” value is 4% and the Z score is listed as -0.65.
`FC(F)(F)c1cccnc1N1CCC([C@H]2CCNC2)CC1`: the “% Inhibition” value was 7% and the Z score is listed as -1.42.
`CC(C)O[C@H]1CN(C(=O)c2cncc(Cl)c2)C[C@@H]1O`: the “% Inhibition” value is -13% and the Z score is 2.47.
`Cc1nnc(-c2ccc(-n3cnnc3)cc2)[nH]1`: the “% Inhibition” value is reported as -5% and the Z score is given as 1.08.
The like results for `O=c1ccn(-c2ccccc2)nc1-c1nc(-c2ccc3c(c2)OCO3)no1` were, in that order, 0% and -0.06.
For `Cc1ccc(-c2nnc3n2CCCCC3)cc1NC(=O)C1(c2cccc(F)c2)CCC1` the same measures were -2% and 0.23.
For `O=C(NCc1ccc(F)cn1)[C@@H]1CCCO1` the same measures were -9% and 1.25.
Consider `CONC(=O)C(=O)Nc1ccc(Br)cc1C`, for which the “% Inhibition” value is -10% and the Z score came to 1.25.
Regarding `Nc1nc(C2CC2)nc(N2CCN(C[C@H]3CCC4(CCC4)O3)CC2)n1`, the “% Inhibition” value is listed as 4% and the Z score was -0.4.
For `CN(C)C(=O)c1n[nH]c2c1CN(C(=O)c1ccc(F)cc1F)CC2` the same measures were 5% and -0.73.
`N#Cc1ccc(S(=O)(=O)N2CC(=O)NC3CCCCC32)o1` (stereo not drawn): the “% Inhibition” value worked out at 0% and the Z score is -0.06.
The like results for `Cn1nnc(CS(=O)(=O)c2cccc(Br)c2)n1` were, in that order, -15% and 2.37.
The like results for `CC(C)COCCC(=O)N1CCC[C@H](NS(C)(=O)=O)C1` were, in that order, -2% and 0.27.
For `COc1ccc([C@@H]2CCCN2c2ncccn2)cc1` the same measures were 7% and -0.82.
For `CC(c1ccco1)N(C)C(=O)[C@@H]1CC[C@H](C(=O)O)C1` (stereo partly drawn), the “% Inhibition” value is -2% and the Z score is given as 0.28.
For `Cc1ccc(N2C(=O)N(Cc3cccc(C#N)c3)S(=O)(=O)c3cccnc32)cc1F` the same measures were -8% and 0.77.
Take `COCCN1C[C@]2(CCCN(C(=O)Cc3cccc(F)c3)C2)CCC1=O`: the “% Inhibition” value is -13% and the Z score is reported as 2.04.
The like results for `Cc1nn(-c2ccccc2)c2sc(C(=O)NC(c3ccccc3)c3ccccc3)cc12` were, in that order, -11% and 1.9.
In the case of `OCCC1(CNc2ccccn2)CCOCC1`, the “% Inhibition” value is on record as -6% and the Z score is recorded as 0.9.
Take `CCN1CCCC(N2C(=O)OC(C)(C)C2(C)O)C1` (stereo not drawn): the “% Inhibition” value was -13% and the Z score came out at 1.41.
For `C#CCCC1(CCC(=O)N2CCOC3CCN(C)CC32)N=N1` (stereo not drawn) the same measures were -7% and 0.93.
For `Cc1cc(-c2cccc(C(=O)N(Cc3cccnc3)CC(C)C)c2)ccn1` the same measures were -8% and 1.38.
Regarding `COc1ccc(Cc2nn(CN(C)CC(=O)Nc3ccc(Cl)cc3)c(=S)o2)cc1`, the “% Inhibition” value is -16% and the Z score is reported as 2.1.
Regarding `COc1ccc(C2=NC3(CCN(Cc4ccccc4)CC3)N[C@H](c3cc(Cl)ccc3O)C2)cc1`, the “% Inhibition” value was 40% and the Z score is on record as -5.7.
The like results for `CCOC(c1noc(C(C)Cc2ccc(C)cc2)n1)C1CCOCC1` (stereo not drawn) were, in that order, -11% and 1.15.
The like results for `CON(C)C[C@H](O)Cn1cc(Nc2nc3ccccc3s2)cn1` were, in that order, -10% and 1.28.
The like results for `COC[C@H]1CCCN(C(=O)NCc2cccc(OC(C)(C)C)n2)CC1` were, in that order, -9% and 1.72.
`Cc1noc(C)c1CCC(=O)N1CCO[C@@H](C)C1`: the “% Inhibition” value was -2% and the Z score worked out at 0.24.
The like results for `CCN(CC)Cc1ccc2c(c1)CN(C(=O)c1ocnc1C)CCO2` were, in that order, -11% and 1.17.
Turning to `Cc1cc(C)c(CN2CCOC[C@@H]2C(=O)O)cc1CN1CCN(C)CC1`, the “% Inhibition” value amounted to 5% and the Z score is reported as -1.05.
The like results for `CCn1nnc2cc(C(=O)N3CCOCC3)ccc21` were, in that order, -10% and 1.96.
For `O=C(Cc1cccs1)N1CC[C@H](CCOc2ccccc2F)C1`, the “% Inhibition” value is listed as -6% and the Z score is reported as 1.07.
For `O=C(Cn1ccc2c(nnc3ccnn32)c1=O)NC1CCCCCC1` the same measures were 2% and -0.22.
The like results for `Cc1cc(C)n(CCC(=O)N2CC[C@H](CCc3noc(C)n3)C2)n1` were, in that order, 4% and -0.6.
The like results for `Cc1cc(NC(=O)[C@@H]2CCCN2C(=O)CC(C)(C)C)ccn1` were, in that order, -5% and 0.69.
`CCC[C@H]1CN(C(=O)CCc2ccc(O)cc2)C[C@@H]1N(C)C`: the “% Inhibition” value is -15% and the Z score turned out to be 1.47.
For `O=C(c1nncc2ccccc12)N1CC[C@H](O)CC12CCC2` the same measures were -4% and 0.75.
Take `CCC[C@H](C)c1cc(NC(=O)c2cnc(C)cn2)[nH]n1`: the “% Inhibition” value is given as -16% and the Z score came out at 1.91.
The like results for `O=C(Cc1nnc(-c2cnccn2)o1)Nc1cc(F)cc(F)c1` were, in that order, 4% and -0.36.
For `O=S(=O)(NC1(CO)CC1)c1c(Cl)cc(Br)cc1Cl` the same measures were 0% and -0.01.
The like results for `Cc1cc(=O)n2ccn(Cc3nc(C4CC4)cs3)c2n1` were, in that order, -5% and 1.07.
Turning to `CCc1ccc(S(=O)(=O)N2CC[C@H](N3CCOC3=O)C2)s1`, the “% Inhibition” value is -5% and the Z score was found to be 0.7.
`CC(C)CC[C@]1(C)NC(=O)N(Cc2cc(=O)n(C)c(=O)n2C)C1=O`: the “% Inhibition” value was 2% and the Z score was -0.19.
The like results for `COc1ccc(-c2ccc(C(=O)N3CC[C@H]4CC[C@@H](C3)N4C)cc2)c(C)c1` were, in that order, 12% and -1.59.
For `C[C@H]1CN(C(=O)c2cncc(O)c2)CCN1CC(F)(F)F` the same measures were -5% and 0.73.
The like results for `CC(C)c1ccccc1NC(=O)N1CCc2[nH][nH]c(=O)c2CC1` were, in that order, 0% and 0.04.
For the compound `CCN(CC)c1ccc(C(=O)NCc2c(C)cc(C)[nH]c2=O)cn1`, the “% Inhibition” value is given as -11% and the Z score is recorded as 1.45.
For `COCC1(CNC(=O)N(Cc2ccsc2)C2CCCC2)CC1` the same measures were -4% and 0.51.
The like results for `O=C1NCCN1C(=O)N1C2CCC1CC(n1ccnn1)C2` (stereo not drawn) were, in that order, -8% and 1.26.
For `Cc1ccc(C(=O)O)c(N2C[C@H]3CCC[C@@H](C3)C2)n1` the same measures were -7% and 0.91.
As for `Clc1ccccc1CCNC(=NC1CCOCC1)NC1CC1`, the “% Inhibition” value is -8% and the Z score is on record as 0.77.
The like results for `NS(=O)(=O)c1ccc(C(=O)N2CCC(F)(F)C2)o1` were, in that order, -20% and 3.37.
Take `O=C(c1cccc(-n2cccn2)n1)N(CC1CC1)C1CC1`: the “% Inhibition” value is recorded as -3% and the Z score turned out to be 0.31.
`CCOC(=O)N1CCC(NC(C)C(O)c2ccc(F)cc2)CC1` (stereo not drawn): the “% Inhibition” value was -8% and the Z score is reported as 0.96.
For `CC1CN(C(=O)NCC2CCCS(=O)(=O)C2)CC(c2ccsc2)O1` (stereo not drawn) the same measures were -5% and 0.75.
In the case of `COc1nnc(NC(=O)NC[C@H]2CCCCS2(=O)=O)s1`, the “% Inhibition” value is -6% and the Z score is 0.93.
For `CC(C)c1cccc(C(=O)N2C[C@@H](C)N(CCO)[C@@H](C)C2)n1` the same measures were 6% and -0.72.
For `CN(C)c1ncccc1COC(=O)c1cc[nH]c1C1CC1` the same measures were 2% and -0.28.
The like results for `CC1OCCC12CN(C(=O)c1ccc(Cl)c(Cl)c1)CCO2` (stereo not drawn) were, in that order, -8% and 1.15.
Turning to `O=C(O)[C@@H]1CN(c2nc(C3CC3)nc3[nH]ccc23)C[C@H]1C(F)(F)F`, the “% Inhibition” value came out at 19% and the Z score is on record as -2.46.
The like results for `NC(=O)CCN1CCN(C(=O)CCN2Cc3ccccc3O[C@H](c3ccccc3F)C2)CC1` were, in that order, -13% and 2.04.
The like results for `Cc1nn(C)c(C)c1CCC(=O)N1CCC[C@H](C(N)=O)C1` were, in that order, 2% and -0.32.
With `COC(=O)[C@@H]1CCCN1C1CCN(C(=O)c2cc(O)ccc2C)CC1`, the “% Inhibition” value is recorded as -8% and the Z score worked out at 1.16.
For `CNC(=O)c1ccc(C(=O)N2CCC([C@@H]3CCCO3)CC2)cn1` the same measures were -17% and 2.33.
For `O=C(NCCc1ccccc1)[C@H]1CC[C@H](Cn2cnnn2)CC1` the same measures were -7% and 0.95.
For `Cc1ccc(F)c(C(=O)N2CCNC[C@H]2C(=O)N2CCN(C)CC2)c1Cl` the same measures were 0% and -0.05.
Regarding `COc1cccc(C2c3[nH]c4ccccc4c3C[C@H]3C(=O)N(c4ccc(C(=O)NCCc5ccccc5F)cc4)C(=O)N23)c1` (stereo partly drawn), the “% Inhibition” value amounted to 2% and the Z score is recorded as -0.4.
For `Cc1cc(CN2CCN(C)CC2)c(C)c(CN(CCO)Cc2cccs2)c1` the same measures were -3% and 0.49.
The like results for `CS(=O)(=O)c1c(Cl)cccc1NC(=O)N1CCC2(CCC2)C1` were, in that order, -20% and 2.01.
The like results for `Cc1cccc([C@H](C)NC(=O)c2[nH]nc(C)c2Cl)n1` were, in that order, -24% and 2.83.
For the compound `O=C(COc1ccc(Cl)cc1)N1CCCc2cnc(N3CCOCC3)nc21`, the “% Inhibition” value is on record as -9% and the Z score was found to be 1.31.
For `CC(C)(C)c1ccc(C(=O)Nc2nc3n(n2)[C@H](c2ccc(Cl)cc2)CC(=O)N3)cc1` the same measures were -11% and 1.14.
For `O=C(CCN1C(=O)CCC1=O)Nc1ncc(Cc2ccccc2)s1` the same measures were -4% and 0.8.

Values taken from ChEMBL document CHEMBL4888484, “Replenishing the malaria drug discovery pipeline: Screening and hit evaluation of the MMV Hit Generation Library 1 (HGL1) against asexual blood stage Plasmodium falciparum ,using a nano luciferase reporter read-out” (2022).
